# Out of some 310,000 compounds screened, about 18,000 (5.8%) were called active. Inconclusive results, whose numbers are uncertain, are shown with a selection of clear calls. Calls come from the whole dose curve; as a rule, active = well fitted inhibition curve with a large enough effect; inconclusive = small, poorly fitted or top-dose-only effect, or another doubt; inactive = no such curve, though single readings can be large or run the other way. Potencies of inconclusive entries are left out as doubtful fits.
# Assay: Primary qHTS for delayed death inhibitors of the malarial parasite plastid, 48 hour incubation
# Conditions: P. falciparum luciferase growth in erythrocytes; series mostly up to 28.7 µM
# In short: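 Luminescence readout; reporter = integrated firefly luciferase in P. falciparum. RBC culture at 2% hematocrit, 0.1% parasitemia final, 37 C/5% CO2; decreased signal taken as growth inhibition.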
# Potency is the fitted concentration of half-maximal effect; tags give direction and shape of the fitted curve.
row,Compound,Potency
1,CCN(Cc1ccccc1)C(=O)COC(=O)c1cc(=O)[nH]c2ccccc12,inactive
2,CN(C(=O)CSc1nnc(C2CC2)n1C)C1CCCc2ccccc21 (stereo not given),"inconclusive [inhibitor, single point]"
3,COc1ccc(N2CCN(CC(=O)Nc3ccccc3C(=O)NCc3ccccc3)CC2)cc1,active: 13.1 µM
4,CCN(c1ccc(OC)cc1)S(=O)(=O)c1ccc2c(c1)CCN2C(=O)CCC(=O)O,"inconclusive [inhibitor, single point]"
5,Cc1ccc(O)c(-c2cc(-c3cccc(F)c3)n[nH]2)c1,active: 8.28 µM
6,Cc1c(C(=O)N2CCC[C@H]2CO)oc2c(F)cccc12,inactive
7,CC(C)[C@H](NC(=O)[C@@H]1Cc2ccccc2CN1)C(=O)Nc1ccc2c(c1)OCCO2,inactive
8,Cc1cc(Cn2nc(C(=O)NCC3CC3)cc2-c2ccccc2)on1,"inconclusive [inhibitor, single point]"
9,CCC(C)(C)c1ccc(Oc2ccc(N)cc2)cc1,"inconclusive [inhibitor, single point]"
10,O=C(NCCc1cccc(Cl)c1)c1ccc(OC2CCN(Cc3ccccn3)CC2)cc1,inactive
11,CC(=O)c1ccc(NC(=O)C(C)OC(=O)COc2ccc(C#N)cc2)cc1 (stereo not given),inactive
12,Cc1ccc(-c2csc(-c3ccncc3)n2)cc1,"inconclusive [inhibitor, single point]"
13,CCn1c(CNc2ccc(Cl)cc2)nnc1SCc1ccc(Cl)cc1,"inconclusive [inhibitor, single point]"
14,Cc1cc(Br)ccc1NC(=O)c1cnc(N2CCN(c3ccccn3)CC2)c2ccccc12,"inconclusive [inhibitor, partial curve]"
15,CCCC(CCC)C(=O)Nc1ccc2c(c1)N(C(=O)CCN1CCN(C)CC1)c1ccccc1CC2,"inconclusive [inhibitor, partial curve, poor fit]"
16,O=C(C1CC(=O)N(c2ccc(Cl)cc2)C1)N1CCN(Cc2ccc3c(c2)OCO3)CC1 (stereo not given),inactive
17,CN1CCN(S(=O)(=O)c2ccc(SCCOc3ccc(Cl)cc3)nc2)CC1,"inconclusive [inhibitor, single point]"
18,CC(C)C(C(=O)Nc1nccs1)c1ccc(Cl)cc1 (stereo not given),"inconclusive [inhibitor, full curve]"
19,CCCCCCn1c(SCCCC)nc2c1c(=O)[nH]c(=O)n2C,"inconclusive [inhibitor, single point]"
20,Cc1ccc(S(=O)(=O)NCc2c(Cl)cccc2Oc2ccccc2)cc1,inactive
21,CC(C)Cn1[nH]c2c3c(ccc2c1=O)C(=O)c1ccccc1C3=O,active: 10.4 µM
22,Cc1cccc(C(=O)NNC(=O)CSc2nnc(C3CC3)n2C)c1,"inconclusive [inhibitor, partial curve, poor fit]"
23,CCCc1ccc(OCC(O)CN2CCN(c3ccccn3)CC2)cc1 (stereo not given),inactive
24,Cc1cccc(Nc2nc(C)cc(C)n2)c1,"inconclusive [inhibitor, partial curve, poor fit]"

row,Compound,Potency
1,CCN(CCNC(=O)C1CCN(S(=O)(=O)c2cccc3nsnc23)CC1)c1ccccc1,"inconclusive [inhibitor, partial curve]"
2,CN(C)S(=O)(=O)c1cccc(-c2csc(N/N=C/c3ccco3)n2)c1,"inconclusive [inhibitor, single point]"
3,O=C(c1ccc2c(c1)N(Cc1ccccc1F)C(=O)c1ccccc1S2(=O)=O)N1CCCC1,"inconclusive [inhibitor, partial curve]"
4,CC1(C)SC(=S)N(NC(=O)Nc2cccc3ccccc23)C1N(O)C(=O)Nc1ccccc1 (stereo not given),"inconclusive [inhibitor, single point]"
5,O=C(Nc1ccncc1)c1cncc(Br)c1,inactive
6,COc1ccccc1CN1CCNC(=O)C1CC(=O)N(C)CC1CCOCC1 (stereo not given),"inconclusive [inhibitor, partial curve, poor fit]"
7,CC(NC(=O)/C=C/c1ccccc1[N+](=O)[O-])C1CC2CCC1C2 (stereo not given),"inconclusive [inhibitor, partial curve]"
8,CC1CN=C2C(C(=O)Nc3ccccc3)=C(O)CC(c3ccccc3)N21 (stereo not given),"inconclusive [inhibitor, single point]"
9,CCOC(=O)c1c(C)[nH]c(C(=O)COC(=O)/C=C/c2ccc(OC(F)F)cc2)c1C,"inconclusive [inhibitor, single point]"
10,COc1ccc([N+](=O)[O-])cc1N1C(=O)c2cccnc2C1=O,"inconclusive [inhibitor, full curve, poor fit]"
11,O=C(NCc1ccco1)c1cnn2c(C(F)(F)F)cc(-c3ccccc3)nc12,active: 13.1 µM
12,Brc1ccc(CSc2nnc(Cc3c[nH]c4ccccc34)o2)cc1,"inconclusive [inhibitor, partial curve, poor fit]"
13,COC(=O)c1ccc(CSc2nnc(Nc3cccc(OC)c3)s2)o1,"inconclusive [inhibitor, partial curve, poor fit]"
14,COc1ccc(-c2nn(-c3ccccc3)cc2/C=N/O)cc1,"inconclusive [inhibitor, single point]"
15,Clc1ccccc1C1CC(c2ccccc2)Nc2ncnn21 (stereo not given),"inconclusive [inhibitor, partial curve, poor fit]"
16,CCOC(=O)CC1Sc2ccccc2NC1=S (stereo not given),"inconclusive [inhibitor, single point]"
17,CCOC(=O)C1=C(CC)OC(N)=C(C#N)C1c1ccc(OC)cc1OC (stereo not given),"inconclusive [inhibitor, partial curve, poor fit]"
18,COc1ccc(CCN2C(=O)CSC2=Nc2ccc(C)cc2C)cc1OC,active: 2.62 µM
19,C=CCN(CC=C)CCOc1cccc(Oc2ccccc2)c1,"inconclusive [inhibitor, single point]"
20,COC(=O)C1(C)NC(c2ccc(OC)cc2)C2C(=O)N(c3ccccc3)C(=O)C21 (stereo not given),"inconclusive [inhibitor, full curve, poor fit]"
21,O=S(=O)(c1ccc2ccccc2c1)N(CC1CO1)c1ccccc1 (stereo not given),inactive
22,CC(=O)N(C)/C=C1\Sc2ccccc2C1=O,inactive
23,COc1ccc(Nc2nc(N)c([N+](=O)[O-])c(N3CCCC3)n2)cc1,"inconclusive [inhibitor, partial curve, poor fit]"
24,O=C(NCc1ccc2c(c1)OCO2)C(=O)NCC1OCCN1S(=O)(=O)c1ccc(Br)cc1 (stereo not given),"inconclusive [inhibitor, single point]"

row,Compound,Potency
1,CC1CCN(C(=O)C2CCC(=O)N(Cc3ccc(Cl)cc3)C2)CC1 (stereo not given),inactive
2,COC(=O)c1cc2c(ccn2-c2ccc(F)cc2)n1CC(=O)C(C)(C)C,"inconclusive [inhibitor, single point]"
3,N#Cc1ccc(Oc2ccc(S(=O)(=O)N3CCCC3)cn2)cc1,inactive
4,CCc1ccc2nc(N(CCCN(C)C)C(=O)c3ccc(C(=O)c4ccccc4)cc3)sc2c1,"inconclusive [inhibitor, single point]"
5,CC(=O)c1ccc(N2CCN(S(=O)(=O)c3cn(C)c(C)n3)CC2)cc1,"inconclusive [inhibitor, full curve, poor fit]"
6,CCOc1ccccc1-c1c2cc(O)c(=O)cc-2oc2cc(O)c(O)cc12,active: 13.1 µM
7,CCn1c(SCC(=O)N2CCCCCC2)nc2c([nH]c3ccccc32)c1=O,inactive
8,COc1ccc(/C=N/Nc2ccccc2C(=O)O)cc1Cn1cc([N+](=O)[O-])cn1,"inconclusive [inhibitor, partial curve, poor fit]"
9,CC1Cc2ccccc2N1C(=O)Cn1nnc(-c2ccccc2NC(=O)C2CCC2)n1 (stereo not given),"inconclusive [inhibitor, single point]"
10,COc1ccccc1CNC(=O)c1ccc(SC)cc1OC,"inconclusive [inhibitor, single point]"
11,O=C(CSc1n[nH]c(-c2ccccc2F)n1)Nc1cc(F)ccc1F,inactive
12,COc1ccc(Nc2cc(O)c3ncccc3c2)cc1,active: 0.465 µM
13,Cc1ccccc1N1CCN(C(=O)[C@@H]2CCCN2C2=NS(=O)(=O)c3ccccc32)CC1,"inconclusive [inhibitor, single point]"
14,Cc1c(C(=O)Nc2cnccn2)oc2ccccc12,"inconclusive [inhibitor, single point]"
15,COc1ccc(/C=C2/C(=O)N(c3cccc(F)c3)N=C2C)c(OC)c1,"inconclusive [inhibitor, single point]"
16,O=S(=O)(Cc1cc(-c2ccccc2)no1)c1ccccc1,inactive
17,Cc1ccccc1Cn1ccc(NC(=O)c2cnn3c2NC(c2ccccc2)CC3C(F)(F)F)n1 (stereo not given),"inconclusive [inhibitor, single point]"
18,Cc1cccn2cc(CCNS(=O)(=O)c3cccc([N+](=O)[O-])c3)nc12,"inconclusive [inhibitor, single point]"
19,CCN1CCN(CCCOc2ccc(Cl)cc2Br)CC1,"inconclusive [inhibitor, single point]"
20,Cc1cccc(C)c1NC(=O)COC(=O)c1ccc2c(c1)OCO2,inactive
21,O=C(CCNC(=O)c1ccco1)Nc1cccc(C(F)(F)F)c1,inactive
22,Cc1cc(-c2csc(NC(=O)c3ccc(C#N)cc3)n2)c(C)n1Cc1ccco1,"inconclusive [inhibitor, partial curve, poor fit]"

# — PubChem BioAssay AID504832 (National Center for Advancing Translational Sciences (NCATS), 2011)
